Measured values taken from PubChem BioAssay AID1508642 (National Center for Advancing Translational Sciences (NCATS), 2021).
Among all 43,000 compounds or so, about 200 (0.47%) were called active. About 12% were inconclusive and are not listed. Calls follow the shape of the dose curve; as a rule, active = well fitted cell-killing curve with a large enough effect; inconclusive = small, poorly fitted or top-dose-only effect, or effect the other way; inactive = flat fitted curve, though single readings scatter. This is one part of the list.

Test: Cell viability qHTS assay in S16 Pmp22-F2sN cells; also: nearly all actives have a fitted effect of over 65% in size
Settings: S16 Pmp22-F2sN Schwann cells (luciferase reporters placed in the Pmp22 gene) viability, CellTiter-Glo, 24 h; series mostly up to 57.5 µM; activity change, negative = cytotoxicity: at the top concentration
Summary of the method: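 Seed 500-1,000 S16 Pmp22-F2sN cells per well in phenol-red-free DMEM with 10% heat-inactivated FBS; pin-add 23 nL compound; incubate 24 h at 37C; add CellTiter-Glo, wait 15 min protected from light; read luminescence.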
% is scaled to controls: 0 for no effect and ±100 for the full control effect.

SMILES	activity change, negative = cytotoxicity
Cc1ccc(OCC(=O)Nc2ccc(OCc3cc(=O)n4cccc(C)c4n3)cc2)cc1C	inactive: 9.86%
COc1ccc(CCNC(=O)Cc2c(C)c3c(cc(C)c4c(C)coc43)oc2=O)cc1OC	inactive: 6.89%
CCN(C(=O)C(=O)Nc1ccc2nc3n(c(=O)c2c1)CCCCC3)c1ccc(F)cc1	inactive: 5.38%
COc1ccc2c(CNCc3ccc(C)o3)c(C(=O)O)n(Cc3ccccc3C)c2c1	inactive: 0.301%
COc1ccc(CCNC(=O)c2ccc3c(c2)CCN3S(C)(=O)=O)cc1	inactive: -3.93%
CCC(=O)N1c2ccccc2CC1C(=O)NCc1cccc(C)c1 (stereo not drawn)	inactive: -0.292%
CCN(CC)CCCNC(=O)Cn1nc(C)n2c(cc3sccc32)c1=O	inactive: 5.87%
Cc1ccccc1-c1nc(CS(=O)CC(=O)N2CCN(c3cc(Cl)ccc3C)CC2)c(C)o1 (stereo not drawn)	inactive: -21.7%
CCc1ccccc1NC(=O)Cn1ccn(-c2cc(C)cc(C)c2)c(=O)c1=O	inactive: 7.03%
COc1ccc(NC(=O)c2ccc3oc(=O)c(S(=O)(=O)c4ccc(C)cc4)cc3c2)cc1OC	inactive: 5.42%
Cc1nn(S(=O)(=O)c2ccccc2)c(C)c1S(=O)(=O)N1CCC(C)CC1	inactive: 0.167%
Cc1ccc(C(=O)c2oc3ccccc3c2NC(=O)Cc2coc3cc(C)ccc23)cc1	inactive: 2.84%
COc1ccc(CCNC(=O)Cn2c(=O)n(-c3ccc(C)c(C)c3)c(=O)c3c(C)c(C)sc32)cc1OC	inactive: -7.17%
COc1ccc(Cn2nnc3c(=O)[nH]c(C4CCCN(C(=O)c5ccc(C)cc5)C4)nc32)cc1 (stereo not drawn)	inactive: -0.0837%
CCCCc1ccc(NC(=O)Cn2nnc3sc4c(c3c2=O)CCC(C)C4)cc1 (stereo not drawn)	inactive: 3.41%
CCOC(=O)c1ccccc1NS(=O)(=O)c1ccc(N2CCCCS2(=O)=O)cc1	inactive: -12.1%
CCc1nn(CC(=O)NC(C)CC)c(=O)c2cc3c(OC)cccc3n12 (stereo not drawn)	inactive: 0.983%
Cc1cccc(-n2c(SCc3nc(-c4ccccc4C)no3)nnc2-c2ccccc2)c1	inactive: 6.38%
CN1CCN(c2oc(/C=C/c3ccc(F)cc3)nc2C#N)CC1	inactive: 2.36%
Cc1cccn2c(=O)c(C(=O)NCc3ccccc3Cl)c(O)nc12	inactive: -1.88%
CCOc1ccc(-n2nc(CO)c(C(=O)NCc3cccnc3)n2)cc1	inactive: -15.4%
COc1ccc(-c2noc(-c3ccc(N4CCN(c5ccc(OC)cc5)CC4)c([N+](=O)[O-])c3)n2)cc1	inactive: 6.06%
COc1ccc(C2C(C(N)=O)=C(C)Nc3nc(CCCO)nn32)cc1 (stereo not drawn)	inactive: 2.1%
Cc1ccc(CCNC(=O)c2cc(Nc3ccc(C)c(C)c3)nc3ccccc23)cc1	inactive: 5.01%

SMILES	activity change, negative = cytotoxicity
O=C(c1ccccc1Cl)N(Cc1ccco1)Cc1ccco1	inactive: -0.297%
Cc1ccccc1Nc1c(-c2cccc(N(C)C)c2)nc2ccc(Br)cn12	inactive: 8.73%
Cc1cc(F)ccc1-n1nnc(C(N)=O)c1C	inactive: 13.3%
CN(Cc1ccccc1)c1ccc(-c2nc(-c3ccco3)no2)cc1[N+](=O)[O-]	inactive: 13.5%
CC(=O)c1cccc(NC(=O)c2c(-c3ccccc3)c(-c3ccccc3)nn(C)c2=O)c1	inactive: -18.7%
COC(=O)c1c(NC(=O)Cc2coc3ccc(C)cc23)sc2c1CCC2	inactive: -1.89%
Cc1cccc(NC(=O)c2sc3nc4c(cc3c2N)CCCCCC4)c1C	inactive: 16.7%
COc1ccc(-n2nc(C(=O)Nc3ccc(Cl)cn3)c3c4ccccc4n(C)c3c2=O)cc1Cl	inactive: 16.8%
Cc1[nH]c2ccccc2c1C(c1ccccc1)c1cccs1 (stereo not drawn)	inactive: 1.83%
Cc1ccccc1NC(=O)Cn1c(=O)n(CCc2ccccc2)c(=O)c2sc3ccccc3c21	inactive: 11.5%
Cc1cc(C(F)(F)F)nn1-c1nc(-c2ccccc2)cc(C(F)(F)F)n1	inactive: 8.37%
CCOC(=O)c1ccc(NC(=O)CC2C(=O)N(c3ccc(C)cc3)C(=O)N2C2CCCCC2)cc1 (stereo not drawn)	inactive: -0.0231%
O=C(CSc1ccccc1)NCc1ccc2c(c1)CCN2C(=O)c1ccc(Cl)cc1	inactive: -4.09%
CC(C)(C)OC(=O)N1CCC(c2c(C(=O)NC3CCCCC3)cnn2-c2cccc(F)c2)CC1	inactive: -7.73%
Cc1cc(Sc2ccc(Cl)cc2)nc2ccccc12	inactive: 6.12%
Cc1cccc(C(=O)Nc2cccc(C(=O)OCc3cc(=O)n4nc(C(C)C)sc4n3)c2)c1	inactive: -7.1%
Cn1nnnc1SCCNCc1ccc(OCc2ccccc2Cl)cc1	inactive: -22.4%
CC(NC(=O)c1ccc(NC(=O)c2nsc3ccccc23)cc1)c1ccccc1 (stereo not drawn)	inactive: -18.2%
Cc1ccc(N(C)S(=O)(=O)c2ccc3[nH]c4c(c3c2)CCCC4)cc1	inactive: 13.7%
N#Cc1cccc(NC(=O)Cn2nc(Cc3ccncc3)c3ccccc3c2=O)c1	inactive: -3.37%
CCN1C(=O)C(Cc2nc3ccccc3c(=O)n2-c2ccc(OC)cc2)c2cc(C)ccc21 (stereo not drawn)	inactive: -10%
Cc1ccc(C)c(Nc2nc(-c3ccccc3)c3cc(Br)ccc3n2)c1	inactive: 21.9%
COc1ccc(CCNC(=O)CCCCn2c(=O)c3ccccc3n(CC(=O)Nc3ccc(C)cc3C)c2=O)cc1OC	inactive: -7.84%
O=C(COc1ccccc1)NCCc1csc(-c2cccc(F)c2)n1	inactive: 10.6%
